Among the data in the RNAGym collection of RNA variant scans (doi:10.7554/elife.90254) are self-cleavage values, retold here.

The source gives no read counts; variants with many changes may rest on few reads.

Sequences and labels used below:
B1: OR4K15 (parent)
chain: GUUAACGGUCAUAGGCCAUGGAAACUAGGAGCACCAUUUCGCUGCCAGUGAAGAAAUGAACAAAGAAAAUCUGGGCCAGGCAGGCAUCAAAAGAAAUAGUCUUGCGCUCAACCAGAAAGUCUGUAAUCAUUUUAAGGGUA

The variants in the data set derive from B1. The data set is described as follows: self-cleavage, relative activity (ratio to wild type); higher = more cleavage; in vitro, sequencing; the parent is a self-cleaving ribozyme.
On to U9C A62G A114U, for which the self-cleavage was found to be 0.01. Turning to U9C A23U A33G A78G A91G A114G, the self-cleavage came to 0.05. The result for U9C A55G U102C reads 1.14; that for U9C A18G A54G C112U A118G U122C, 0.01. The same measure for U9C A18G U102C A111G: 0.06; for U9C A36G A66G A90G: 1.04.

For U9C A22G U43C U100C A116G U122C, the self-cleavage was 0.65. The result for U9C A47G A64G A69G A116G reads 0.53; that for U9C U26C U38C, 1.6; that for U9A U19C A52G A56G, 1.42. In the case of U9C C32U U72C A78U A91G U103A U108C U120C, the self-cleavage stood at 0. On to C10U A22U A52G U57C A82U A96G U97C U120C, for which the self-cleavage was 0.02. The same measure for U9A A66G A96G: 1.25; for U9A A55G G75A A89U A129G: 0.17; for U9C A89G U130C: 1.64. The same measure for U9C U19A U37A: 0.7; for U9G A22G U38A A64G U127C: 0.83. The same measure for U9C A47U A67G: 0.65; for U9A G41A A98U U100A: 1.19; for C10U A52U A55G U57C: 0.45. Turning to U9G A59G A60G U131C, the self-cleavage was found to be 1.93. The same measure for A11C A22G A60G U100C: 1.3; for U9C U39C A68G: 1.32; for U9A C10U U12A A55G U100C A125G: 0.55. The result for U9C A54G U103C U131C reads 1.43; that for U9A A63G A82G U87A A90G A118G, 0.11.

On to U9C C85U A94G, for which the self-cleavage came to 0.49. Take U9A U37C A114C: the self-cleavage was 0. The result for U9C A33C A54G A55G A59G U72A U100C A135G reads 0.27. The same measure for U9C A24U U38C A94U A117C U132C A134G: 0.43; for U9C A111G A126C: 0.02; for U9C A22U A52U A125G: 0.8.

With U9A U19C U49A, the self-cleavage came to 1.4.

Turning to U9C C16U A60G A63G, the self-cleavage stood at 0.73.

For the variant U9C U57G A116G, the self-cleavage amounted to 0.32. Take U9C A23G A47G A60U A126C: the self-cleavage was 0.3. The same measure for U9C A22G A33G G41A A63G: 0.71; for U9C A96G U100C: 2.82; for U9C A51U A54G U103C: 1.47.

On to U9C U120C U131C, for which the self-cleavage was determined as 0.45.

For U9C A52G A60G, the self-cleavage came out at 1.04. The result for U9C A27G G29U A96G A118G reads 0.5; that for U9C A33G A62U U102A A116G, 0.2; that for U9C A63G A64G A116G, 1.42.

On to U9C U39C A59G, for which the self-cleavage worked out at 1.28.

With U9C A55C A116U, the self-cleavage was determined as 0.3. The same measure for U9C A23G A62C U70C U124A: 0.07; for U9C A23C U87C: 1.25; for U9A A64G A66G A78U A82G U100C A118G U127C: 0.11.

As to U9C U38C A51G U87C U102C U131C, the self-cleavage was determined as 2.51. The same measure for U9C U49C A114G U122G: 0.15; for U9C U100C U132C: 1.73.

In the case of U9C A23G A30U U87C U103C, the self-cleavage came out at 0.22. The same measure for U9C C17U U37C A54U: 1.14; for U9C U100A A126G: 0.37; for U9C U49C A126G: 0.71. The same measure for U9G A59G A90U U122C: 0.56; for U9C U38C C85U A110C U132G: 0.36. The result for C10A A11G A94U A110G reads 0.06; that for U9C A69U A117G U122C, 1.48.

With U9C U26A A52G, the self-cleavage was determined as 1.41. For U9C U37C U57C A68G, the self-cleavage stood at 1.53.

Take U9C A90G A95G U103A C121U: the self-cleavage stood at 0.94. The result for U9C U37C G53A A60G U127C reads 0.88; that for U9C A18U A66U A89G U100C, 1.77. The result for U9A U37C U39G reads 0.81. For the variant U9C A33G A69C U131C, the self-cleavage is 0.87. For U9C A86U U103C, the self-cleavage was 1.67. The result for U9A G14U A59G reads 0.98. For the variant U9C A64G A69U A117G U132A, the self-cleavage is 1.64. The result for U9A U26C G31A C34U reads 0.81; that for U9C A69G U97C, 1.1. Turning to U9C A55G A82G, the self-cleavage worked out at 0.83. The result for U9G C76A U103A reads 0.1. The result for U9C G79A U122C reads 0.1; that for U9A A86C A98G U130C, 0.31; that for U9A A94G U97C, 0.9. The result for U9A U19C A64G U72A A86U reads 0.32. With U9A U43A A54G A62G, the self-cleavage worked out at 1.67. The same measure for U9C A62G A63G A68G: 0.95; for U9A A56G U57C U102C A114U: 0.03; for U9C G41A G83A A118U: 1.99. Take U9C U57C A62G A78U: the self-cleavage is 0.3.

U9C A60G A62G: the self-cleavage was determined as 0.41.

With U9C U39A A59G A89U, the self-cleavage was 2.01. The same measure for U9C A55G U120C: 0.57. In the case of U9A U39C A60G, the self-cleavage turned out to be 1.6.

Turning to U9C U37C A96U C105G, the self-cleavage turned out to be 0.04. U9C U43C A54G A68G: the self-cleavage worked out at 0.98. The result for U9C A68U A129G U132C A134G U139C reads 0. In the case of U9C A64G A86G, the self-cleavage worked out at 1.09. As for U9C U19A U38A G41A U139C, the self-cleavage is 1.81. The result for U9C A18G U43C reads 0.69.

For C10U A36U U122C G138A, the self-cleavage is 0.64. As for U9C A30G A118G, the self-cleavage is 0.73. U9C A55G A62G A66G G106U: the self-cleavage came out at 0.02. The same measure for U9C A22G A69G: 0.57; for U9G A51U A56G U57C U70C U120C: 0.23; for U9C A64G A94G A129U: 0.75. The same measure for U9C A110G A118U: 0.14; for U9C A18C A22G: 1.07; for U9C U43C A114U A129G: 0.05. The same measure for U9C A36G A51G A90G U132C: 1.87; for U9A U37A A94G: 0.97. In the case of U9C C32U U49A A59G, the self-cleavage is 1.56. The same measure for U9C U38A U108A: 0.09; for U9C G14A A56C A60G C77G A78G A116G: 0.06; for U9C A114G U127C U131C: 0.07. In the case of U9C A24G A89G A135U, the self-cleavage was found to be 0.64. Consider U9G A22G G75A C76U A125G, for which the self-cleavage is 0.03. Turning to U9C A22G A95G, the self-cleavage is 1.48.

Turning to U9C U38C A56G A62G, the self-cleavage is 1.24.

As to U9A G21A A22G U39C A52G A62G A66G A67G, the self-cleavage worked out at 0.68.

Regarding U9A G14U U49C U100C, the self-cleavage worked out at 1.27. The same measure for U9C U49A A54G A126G: 0.52; for U9C U39A A52G A78G A118G: 0.49.

For the variant U9C A18U U49A A59G A60G, the self-cleavage came to 0.61. The same measure for U9C U102G A129G: 0.59. On to U9C U72C U102C, for which the self-cleavage was found to be 0.38.

For the variant U9C U49C A69G A86C U122C, the self-cleavage stood at 0.58.

For U9C A13G U19C A56G, the self-cleavage amounted to 0.78. The same measure for U9C A23G A86G A111G: 0.03; for U9C A69G U130C: 1.52.

Consider U9C A22G A78G, for which the self-cleavage came out at 0.3.

Regarding C10A G14U A82C A117C U131C, the self-cleavage is 0.01.

As to U9C A59G U108A, the self-cleavage turned out to be 0.09. The same measure for U9C A47U A118G U122C: 0.17.

As for C10U G14A G137U, the self-cleavage turned out to be 0.84. The result for U9C G48U A90G reads 1.5; that for U9C G14U G21U U120A, 0.83; that for U9C A23G A86G, 1.18. The same measure for U9C A54U A86G: 1.11; for U9C U72C A114G A140G: 2.19; for U9C A36U A55G A114G: 0.15. As for U9C A62G A67C U87A, the self-cleavage turned out to be 1.4. The result for U9C A62G U100A A111G reads 0.04; that for U9C C34U A111G, 0.04.

On to U9C A36G U37C A96G, for which the self-cleavage was determined as 2.08. In the case of U9C A24G A30G A69G, the self-cleavage came to 0.94.

On to U9G A47G A66G, for which the self-cleavage worked out at 0.92.

With C10U U37C A68U, the self-cleavage was 1.29. The same measure for U9C A30G A66G U72C A96G: 0.57; for U9G U19A A24G U37A A54U A63G: 1.16. The same measure for U9G A78U U87C U127A: 0.46.

Consider U9C A54U A92U, for which the self-cleavage stood at 1.48. The result for U9A A69G U72A G75A reads 0.14. C10A U43A A56G: the self-cleavage stood at 0.48. The result for U9C A68C A86G U108C reads 0.01; that for U9A A92G A111U U124C, 0.03; that for U9C A55G A110G A114G, 0.16. Turning to U9C A54U A67C A86G U132C, the self-cleavage was 2.51. The same measure for U9C A51G A89G: 2.33; for U9C C32U A52G A95G: 1.45. U9C A52G U103A A135G: the self-cleavage stood at 0.77. The result for C10A U26G A33G U43A A68G reads 0.24; that for U9C A24G A52G A86U U87C U100C, 2.84; that for U9C A13U G58U A91G, 1.

Take U9C U39C A117G A140G: the self-cleavage amounted to 2.38. The same measure for U9C U39A A62G A69U: 0.38. The result for U9G A69G A94G A98G A125U U139C reads 0.76; that for U9G G15A A110U, 0.55. Consider U9A A66U A111G A125G A134G, for which the self-cleavage was 0. The result for U9A U57C A110U U127C reads 0.13; that for C10U A51G A66C A68G U70A U133C, 0.5.

In the case of U9C A33G C105U, the self-cleavage was determined as 0.12. The result for U9C C17U U38C reads 1.42. The result for U9C A60G A90G reads 0.78.
